Measured values: the antibiotic and cytotoxicity screens of Wong et al. (2023)
The other results are listed elsewhere or left out.

Legend:
HSkMC = human skeletal muscle cells; assay: cytotoxicity call (relative viability < 0.9); conditions: 10 µM
S. aureus RN4220 = assay: growth inhibition call (relative growth <= 0.2); conditions: 50 µM

Question: For `C[C@@H]1CCCCO[C@@H](CN(C)Cc2ccncc2)[C@@H](C)CN([C@@H](C)CO)C(=O)c2cc(NC(=O)Nc3ccc(F)cc3)ccc2O1`, which cytotoxicity call (HSkMC) is on record?
Answer: inactive

Question: What about the growth inhibition call (S. aureus RN4220) of the same molecule?
Answer: inactive

Question: What does the source list for `CC(=O)N1CCC[C@H](C(=O)O)C1`?
Answer: cytotoxicity call (HSkMC): inactive; growth inhibition call (S. aureus RN4220): inactive

Question: What does the source list for `C[C@@H]1CN([C@H](C)CO)C(=O)c2cc(NC(=O)Nc3ccc(C(F)(F)F)cc3)ccc2O[C@H]1CN(C)Cc1ccc(Oc2ccccc2)cc1`?
Answer: cytotoxicity call (HSkMC): inactive; growth inhibition call (S. aureus RN4220): inactive

Question: Which results are given for `O=C(N[C@@H](c1ccc(-c2ccccc2)cc1)c1cnccn1)C1CCN(Cc2cccc(C(F)(F)F)c2)CC1`?
Answer: cytotoxicity call (HSkMC): inactive; growth inhibition call (S. aureus RN4220): inactive

Question: How did the cytotoxicity call (HSkMC) turn out when `CNS(=O)(=O)c1ccc(C)cc1` was run?
Answer: inactive

Question: What about the growth inhibition call (S. aureus RN4220) of the same molecule?
Answer: inactive
